Measured values taken from the supplement of paper PMC8728848.
The list shows a part of the results.

Legend:
Experiment in all cases: glycan array binding signal (z-score within array); higher = stronger binding
Details in all cases: glycan notation: IUPAC condensed, linker removed
Glc(a1-2)Glc = biological target: Glc(a1-2)Glc
Summary of the method: (§1)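 Glycan array data came from 3228 arrays in the Consortium for Functional Glycomics database, and only arrays with an available protein sequence were kept. Glycan names were put into IUPAC-condensed notation, and columns mapping to the same glycan were averaged. The binding signal is a within-array Z-score, averaged across arrays of one protein sequence run at different concentrations or buffers and across linkers. A negative Z-score can be read as non-binding.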

Glc(a1-2)Glc(a1-2)Glc = biological target: Glc(a1-2)Glc(a1-2)Glc
Summary of the method: as §1

[1] = biological target: Glc(a1-2)Glc(a1-2)Glc(a1-2)Glc
Summary of the method: as §1

[2] = biological target: Glc(a1-2)Glc(a1-2)Glc(a1-2)Glc(a1-2)Glc
Summary of the method: as §1

[3] = biological target: Glc(a1-2)Glc(a1-2)Glc(a1-2)Glc(a1-2)Glc(a1-2)Glc
Summary of the method: as §1

[4] = biological target: Glc(a1-2)Glc(a1-2)Glc(a1-2)Glc(a1-2)Glc(a1-2)Glc(a1-2)Glc
Summary of the method: as §1

[5] = biological target: Glc(a1-2)Glc(a1-2)Glc(a1-2)Glc(a1-2)Glc(a1-2)Glc(a1-2)Glc(a1-2)Glc
Summary of the method: as §1

[6] = biological target: Glc(a1-2)Glc(a1-2)Glc(a1-2)Glc(a1-2)Glc(a1-2)Glc(a1-2)Glc(a1-2)Glc(a1-2)Glc
Summary of the method: as §1

Glc(a1-3)Glc = biological target: Glc(a1-3)Glc
Summary of the method: as §1

Glc(a1-3)Glc(a1-3)Glc = biological target: Glc(a1-3)Glc(a1-3)Glc
Summary of the method: as §1

[7] = biological target: Glc(a1-3)Glc(a1-3)Glc(a1-3)Glc
Summary of the method: as §1

[8] = biological target: Glc(a1-3)Glc(a1-3)Glc(a1-3)Glc(a1-3)Glc
Summary of the method: as §1

[9] = biological target: Glc(a1-3)Glc(a1-3)Glc(a1-3)Glc(a1-3)Glc(a1-3)Glc
Summary of the method: as §1

[10] = biological target: Glc(a1-3)Glc(a1-3)Glc(a1-3)Glc(a1-3)Glc(a1-3)Glc(a1-3)Glc
Summary of the method: as §1

[11] = biological target: Glc(a1-3)Glc(a1-3)Glc(a1-3)Glc(a1-3)Glc(a1-3)Glc(a1-3)Glc(a1-3)Glc
Summary of the method: as §1

[12] = biological target: Glc(a1-3)Glc(a1-3)Glc(a1-3)Glc(a1-3)Glc(a1-3)Glc(a1-3)Glc(a1-3)Glc(a1-3)Glc
Summary of the method: as §1

[13] = biological target: Glc(a1-3)Glc(a1-3)Glc(a1-3)Glc(a1-3)Glc(a1-3)Glc(a1-3)Glc(a1-3)Glc(a1-3)Glc(a1-3)Glc
Summary of the method: as §1

[14] = biological target: Glc(a1-3)Glc(a1-3)Glc(a1-3)Glc(a1-3)Glc(a1-3)Glc(a1-3)Glc(a1-3)Glc(a1-3)Glc(a1-3)Glc(a1-3)Glc
Summary of the method: as §1

[15] = biological target: Glc(a1-3)Glc(a1-3)Glc(a1-3)Glc(a1-3)Glc(a1-3)Glc(a1-3)Glc(a1-3)Glc(a1-3)Glc(a1-3)Glc(a1-3)Glc(a1-3)Glc
Summary of the method: as §1

[16] = biological target: Glc(a1-3)Glc(a1-3)Glc(a1-3)Glc(a1-3)Glc(a1-3)Glc(a1-3)Glc(a1-3)Glc(a1-3)Glc(a1-3)Glc(a1-3)Glc(a1-3)Glc(a1-3)Glc
Summary of the method: as §1

Glc(a1-4)Glc = biological target: Glc(a1-4)Glc
Summary of the method: as §1

Glc(a1-4)Glc(a1-4)Glc = biological target: Glc(a1-4)Glc(a1-4)Glc
Summary of the method: as §1

[17] = biological target: Glc(a1-4)Glc(a1-4)Glc(a1-4)Glc
Summary of the method: as §1

[18] = biological target: Glc(a1-4)Glc(a1-4)Glc(a1-4)Glc(a1-4)Glc
Summary of the method: as §1

[19] = biological target: Glc(a1-4)Glc(a1-4)Glc(a1-4)Glc(a1-4)Glc(a1-4)Glc
Summary of the method: as §1

[20] = biological target: Glc(a1-4)Glc(a1-4)Glc(a1-4)Glc(a1-4)Glc(a1-4)Glc(a1-4)Glc
Summary of the method: as §1

[21] = biological target: Glc(a1-4)Glc(a1-4)Glc(a1-4)Glc(a1-4)Glc(a1-4)Glc(a1-4)Glc(a1-4)Glc
Summary of the method: as §1

[22] = biological target: Glc(a1-4)Glc(a1-4)Glc(a1-4)Glc(a1-4)Glc(a1-4)Glc(a1-4)Glc(a1-4)Glc(a1-4)Glc
Summary of the method: as §1

[23] = biological target: Glc(a1-4)Glc(a1-4)Glc(a1-4)Glc(a1-4)Glc(a1-4)Glc(a1-4)Glc(a1-4)Glc(a1-4)Glc(a1-4)Glc
Summary of the method: as §1

[24] = biological target: Glc(a1-4)Glc(a1-4)Glc(a1-4)Glc(a1-4)Glc(a1-4)Glc(a1-4)Glc(a1-4)Glc(a1-4)Glc(a1-4)Glc(a1-4)Glc
Summary of the method: as §1

Measured: glycan array binding signal (z-score)

B1: Unk16A (Cellvibrio mixtus), Q336L6 (protein)
chain: VAYNTTGASSSAASSSAPSSASSSSSSAAPVLLSQGRPVTASSNFQPAANAVDGNGGTRWESTHGVSPSWIMVDLGSSKNLSQVIIDWEAANAANYLVQASNNGMSWTTLKIITTGAFGDRTDTHSVAGNYRYVRIYATARSAGNQWGYSIWELKITGN
-0.667: [20] | [21]
-0.662: [23]
-0.661: [24]
-0.668: all other assays above
